Measured values as given in the supplement of paper PMC10600219.
“And” between values parts separate entries of the source, which are not always exact repeats. Identical values can stand only once. Counter-ions that a name gives are not always drawn. Over roughly 2,800 compounds, “cell viability relative to vehicle” has its median near 0.98; the lowest 2% begin near 0.45. The list shows a part of the results.

These molecules were tested on NCI-H2228 alectinib-DTP (assay: cell viability relative to vehicle (fraction of vehicle); NCI-H2228 is an ALK-positive lung cancer line and DTP means drug-tolerant persister; higher = less growth inhibition). Details: 100 nM; treatment time 6 days.
Outline: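 Parental NCI-H2228 cells and drug-tolerant persister cells (made with 1000 nM of a targeted drug for 13 days) were seeded in 384-well plates. The next day, the 3114-agent TargetMol anti-cancer compound library was added at 100 nM, with DMSO as vehicle. After 6 days, ATP was read with the CellTiter-Glo 3D Cell Viability Assay. Each value is cell viability relative to vehicle-treated cells.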

Point of comparison: `CN(C)C/C=C/C(=O)Nc1ccc(C(=O)Nc2cccc(Nc3ncc(Cl)c(-c4c[nH]c5ccccc45)n3)c2)cc1`, cell viability 0.346. Against it:
- O=C1NC(=O)C(c2cnc3ccccn23)=C1c1cn2c3c(cc(F)cc13)CN(C(=O)N1CCCCC1)CC2 — higher, 0.476
- O=C(NC[C@H](O)CN1CCc2ccccc2C1)c1cc(NC2COC2)ncn1 — higher, 0.973
- COc1cc2ncnc(Sc3nnc(C)s3)c2cc1OC — higher, 1.07
- CNC1CCCN(c2c(F)cc3c(=O)c(C(=O)O)cn(C4CC4)c3c2OC)C1 (centres undefined) [Balofloxacin] — higher, 1.12
- CC1(C)CC[C@]2(C(=O)O)CC[C@]3(C)C(=CC[C@@H]4[C@@]5(C)CC[C@H](O[C@@H]6O[C@H](C(=O)O)[C@@H](O)[C@H](O[C@@H]7OC[C@@H](O)[C@H](O)[C@H]7O)[C@H]6O)C(C)(C)[C@@H]5CC[C@]43C)[C@@H]2C1 [Momordin Ic] — higher, 1
- CC[C@H]1[C@@H](O)[C@@H]2[C@H](CC[C@]3(C)[C@@H]([C@H](C)CCC(=O)O)CC[C@@H]23)[C@@]2(C)CC[C@@H](O)C[C@@H]12 [Obeticholic Acid] — higher, 0.788
- C[C@@H](Oc1ccc2[nH]nc(/C=C/c3cnn(CCO)c3)c2c1)c1c(Cl)cncc1Cl — higher, 0.773
- C[C@H]1O[C@H](O[C@H]2[C@H](O)[C@@H](O)[C@@H](O[C@H]3[C@H](O)[C@@H](O)C(O)O[C@@H]3CO)O[C@@H]2CO)[C@H](O)[C@@H](O)[C@@H]1N[C@H]1C=C(CO)[C@@H](O)[C@H](O)[C@H]1O (some centres undefined) [Acarbose] — higher, 0.998
- N=C(N)NC(=N)NCCc1ccccc1 [Phenformin hydrochloride] — higher, 1.07
- O=c1[nH]c(C2CCCN2)nc2c1oc1ccc(Cl)cc12 (centres undefined) [XL413 hydrochloride] — higher, 0.981
- CO[C@H]1/C=C/O[C@@]2(C)Oc3c(C)c(O)c4c(O)c(c(/C=N/N5CCN(C6CCCC6)CC5)c(O)c4c3C2=O)NC(=O)/C(C)=C\C=C\[C@H](C)[C@H](O)[C@@H](C)[C@@H](O)[C@@H](C)[C@H](OC(C)=O)[C@@H]1C [Rifapentine] — higher, 1.08
- CC(C)Oc1ccc(-c2nc(-c3cccc4c3CC[C@@H]4NCCO)no2)cc1C#N [Ozanimod] — higher, 0.913
- CN1CCC(=C2c3ccccc3C=Cc3ccccc32)CC1 [Cyproheptadine hydrochloride] — higher, 1.17
- C[C@@H](CC[C@@]1(O)O[C@H]2C[C@H]3[C@@H]4CC[C@@H]5C[C@@H](O[C@@H]6O[C@H](CO)[C@H](O)[C@H](O)[C@H]6O[C@@H]6O[C@H](CO)[C@@H](O)[C@H](O)[C@H]6O)CC[C@]5(C)[C@H]4CC[C@]3(C)[C@H]2[C@@H]1C)CO[C@@H]1O[C@H](CO)[C@@H](O)[C@H](O)[C@H]1O [Timosaponin BII] — higher, 0.983
- COc1cc2c(NC3CCN(C(C)C)CC3)nc(C3CCCCC3)nc2cc1OCCCN1CCCC1 — higher, 1.15
- CC(Cc1cccc(C(F)(F)F)c1)NCCOC(=O)c1ccccc1 (centres undefined) [Benfluorex hydrochloride] — higher, 0.815
- O=C(O)[C@]1(Cc2cccc(Nc3nccs3)n2)CC[C@@H](Oc2cccc(Cl)c2F)CC1 — higher, 0.98
- CC(=O)Nc1ccc(C(=O)Nc2ccccc2N)cc1 — higher, 0.923
- COc1cccc2c1c(O)c(C(=O)N(C)c1ccc(C(F)(F)F)cc1)c(=O)n2C [Tasquinimod] — higher, 1.03
- C#Cc1cccc(Nc2ncnc3cc(OC)c(OCCCCCCC(=O)NO)cc23)c1 — higher, 0.97
- O=S(=O)(c1ccc2c(c1)C(=NO)c1cc(S(=O)(=O)N3CCCCC3)ccc1-2)N1CCCCC1 — higher, 1.06
- CC(=O)S[C@@H]1CC2=CC(=O)CC[C@]2(C)[C@H]2CC[C@@]3(C)[C@@H](CC[C@@]34CCC(=O)O4)[C@H]12 [Abbolactone] — higher, 1.05
- CN1CCN(C(=O)/C=C/c2ccc([N+](=O)[O-])o2)CC1 — higher, 1.04
- CN(CC(=O)N(Cc1ccc(C2CCCCC2)cc1)c1ccc(C(=O)O)c(O)c1)S(=O)(=O)c1c(F)c(F)c(F)c(F)c1F — higher, 0.885
- Cc1nccnc1N1CCCCC1 [Modaline sulfate] — higher, 1.07
- Nc1nc(Nc2ccc3c(c2)CC[C@@H](N2CCCC2)CC3)nn1-c1cc2c(nn1)-c1ccccc1CCC2 [Bemcentinib] — higher, 0.901
- CC(C)(O)[C@H]1CC[C@@](C)([C@H]2[C@@H](O)C[C@@]3(C)[C@@H]4C[C@H](O[C@@H]5O[C@H](CO)[C@@H](O)[C@H](O)[C@H]5O)[C@H]5C(C)(C)[C@@H](O[C@@H]6OC[C@@H](O)[C@H](O)[C@H]6O)CC[C@@]56C[C@@]46CC[C@]23C)O1 [Astragaloside A] — higher, 0.983
- O=C(Nc1cccc(C(F)(F)F)c1)c1cccc2cc(Oc3cc(CO)ncn3)ccc12 — higher, 0.987
- O=C(Nc1ccc(O)c(C(=O)O)c1)c1cccc(NC(=O)c2ccco2)c1 — higher, 1.18
- N#Cc1ccc(C(c2ccc(C#N)cc2)n2cncn2)cc1 [Letrozole] — higher, 0.854
- Clc1ccc(CCC(Cn2ccnc2)Sc2c(Cl)cccc2Cl)cc1 (centres undefined) [Butoconazole nitrate] — higher, 1.07
- C[C@@]1(C(=O)Nc2ccc(F)nc2)CCCN1c1nc(Nc2cc(C3CC3)n[nH]2)c2cccn2n1 — higher, 0.601
- CCCCCCCCCCCCCCCCCCOCC(O)CO (centres undefined) [Batyl alcohol] — higher, 1.05
- C[N+]1(C)CCC(OC(=O)C(O)(c2ccccc2)C2CCCC2)C1 (centres undefined) [Glycopyrrolate] — higher, 0.8
- CCOC(=O)[C@@H](N)Cc1ccc(-c2cc(O[C@H](c3ccc(Cl)cc3-n3ccc(C)n3)C(F)(F)F)nc(N)n2)cc1 [Telotristat Etiprate] — higher, 0.959
- CN1CCN(C2=Nc3ccccc3Oc3ccc(Cl)cc32)CC1 [Loxapine succinate salt] — higher, 0.902
- CC1(C)CC[C@]2(C(=O)O[C@@H]3O[C@H](CO)[C@@H](O)[C@H](O)[C@H]3O)CC[C@]3(C)C(=CC[C@@H]4[C@@]5(C)CC[C@H](O[C@@H]6O[C@H](C(=O)O)[C@@H](O)[C@H](O)[C@H]6O)C(C)(C)[C@@H]5CC[C@]43C)[C@@H]2C1 [Chikusetsusaponin IVa] — higher, 1.1

`O=C(O)c1ccc(S(=O)(=O)NC2CCCCC2)cc1` was tested, and the cell viability was 0.943 and 1.05.
